Experimental data taken from PubChem BioAssay AID720709 (National Center for Advancing Translational Sciences (NCATS), 2013).
The campaign covered roughly 360,000 compounds. About 520 (0.14%) were called active. This list was built around the results that the source calls inconclusive (neither active nor inactive); the mix of calls is not that of the screen. Calls come from the whole dose curve; as a rule, active = well fitted inhibition curve with a large enough effect; inconclusive = small, poorly fitted or top-dose-only effect; inactive = no such curve, though single readings can be large or run the other way. No potency is given beside an inconclusive call; the fits are too rough.

target: Rap guanine nucleotide exchange factor 3 (Homo sapiens) (UniProt O95398); test: qHTS for Antagonist of cAMP-regulated guanine nucleotide exchange factor 3 (EPAC1): primary screen; details: EPAC1 GEF assay, Rap1b-BODIPY-GDP exchange fluorescence; series mostly up to 115 µM; note: nearly all actives have a fitted effect of over 50% in size
UniProt O95398, sequence (O95398 whole entry, looked up): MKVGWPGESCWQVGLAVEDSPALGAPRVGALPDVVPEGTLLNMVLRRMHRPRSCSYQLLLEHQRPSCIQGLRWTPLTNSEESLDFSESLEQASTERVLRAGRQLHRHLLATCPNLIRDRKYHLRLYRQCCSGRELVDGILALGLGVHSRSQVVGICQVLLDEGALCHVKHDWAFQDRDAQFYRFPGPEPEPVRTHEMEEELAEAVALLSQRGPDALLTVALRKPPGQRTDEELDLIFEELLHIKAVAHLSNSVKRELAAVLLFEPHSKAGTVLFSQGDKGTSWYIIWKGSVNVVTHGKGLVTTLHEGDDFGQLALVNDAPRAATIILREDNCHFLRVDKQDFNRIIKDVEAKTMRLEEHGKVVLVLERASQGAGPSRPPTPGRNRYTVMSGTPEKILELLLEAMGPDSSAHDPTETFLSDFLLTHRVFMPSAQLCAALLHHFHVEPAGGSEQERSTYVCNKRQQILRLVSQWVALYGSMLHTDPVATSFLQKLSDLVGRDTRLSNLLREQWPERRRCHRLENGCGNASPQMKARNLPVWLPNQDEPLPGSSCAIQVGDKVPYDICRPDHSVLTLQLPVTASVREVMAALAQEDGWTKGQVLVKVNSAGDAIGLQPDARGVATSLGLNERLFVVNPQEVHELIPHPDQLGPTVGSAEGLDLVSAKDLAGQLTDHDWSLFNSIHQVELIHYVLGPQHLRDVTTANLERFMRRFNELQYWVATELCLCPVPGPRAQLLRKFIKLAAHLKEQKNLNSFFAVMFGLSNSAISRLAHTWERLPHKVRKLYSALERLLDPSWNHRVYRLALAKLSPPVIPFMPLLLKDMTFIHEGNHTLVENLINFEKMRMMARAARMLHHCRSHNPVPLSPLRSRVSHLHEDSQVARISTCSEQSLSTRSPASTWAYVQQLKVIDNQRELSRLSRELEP
Potency is the fitted concentration of half-maximal effect; tags give direction and shape of the fitted curve.

Row | Structure (SMILES) | Potency
1 | CCCNc1c(NS(=O)(=O)c2ccc(Br)cc2)c(=O)oc2ccccc12 | inactive
2 | Cc1ccc2ccc3ccc(C)nc3c2n1 | inactive
3 | CC(=O)Nc1ccc(OCC(O)Cn2cncn2)cc1 (configuration not stated) | inconclusive [inhibitor, partial curve, poor fit]
4 | Cc1cc(C)c(OCCCCN(C)Cc2ccccc2)c(C)c1 | inactive
5 | COc1ccc([C@@H]2CC=C(C(=O)O)[C@H](c3ccc(Cl)cc3)N2S(=O)(=O)c2ccc(Cl)cc2)cc1 | inconclusive [inhibitor, single point]
6 | Cn1cccc1C1C(C#N)=C(N)OC2=C1C(=O)CCC2 (configuration not stated) | inactive
7 | Cc1ccc(CNC(=O)CN2C(=O)COc3ccc(S(=O)(=O)N4CCCCC4)cc32)o1 | inconclusive [inhibitor, partial curve]
8 | CC(C)(C)n1nnnc1C(c1cccs1)N1CCN(C(=O)c2ccco2)CC1 (configuration not stated) | inconclusive [inhibitor, full curve]
9 | CNC(=O)COC(=O)c1cc(-c2ccco2)nc2ccccc12 | inconclusive [inhibitor, single point]
10 | CC1CCN(S(=O)(=O)c2ccc(NC(=O)c3cccs3)cc2)CC1 | inconclusive [inhibitor, single point]
11 | CC(=O)NC(=S)Nc1sc2c(c1C(N)=O)CCC(C)C2 (configuration not stated) | inactive
12 | COc1ccccc1Nc1nc(N)nc(CN2CCC(Cc3ccccc3)CC2)n1 | inactive
13 | O=S(=O)(c1cccs1)N1CCN(S(=O)(=O)c2cccs2)CC1 | inactive
14 | CCOC(=O)N1CCN(C(=O)c2cc(C)no2)CC1 | inconclusive [inhibitor, single point]
15 | COc1cc(/C=C2\NC(=S)NC2=O)ccc1OCc1cccc(C(=O)O)c1 | inconclusive [inhibitor, full curve, poor fit]
16 | COc1cccc(/C(=N/O)C2CC2c2ccc(Cl)cc2)c1 (configuration not stated) | inconclusive [inhibitor, single point]
17 | O=C(Cc1ccccc1)NCC(=O)N1CCC1 | inconclusive [inhibitor, partial curve]
18 | Cc1ccccc1-c1nnc(SCC(=O)Nc2cccnc2Cl)o1 | inconclusive [inhibitor, single point]
19 | c1ccc(-c2csc(Nc3cccnc3)n2)cc1 | inconclusive [inhibitor, full curve, poor fit]
20 | Cc1ccc(C(C)C)c(OCc2nn(CC(=O)c3ccc(OC(F)F)cc3)c3[n+]2CCCCC3)c1 | inconclusive [inhibitor, single point]
21 | COc1cc(/C=N/NC(=O)CC23CC4CC(CC(C4)C2)C3)cc(Br)c1OCC(=O)N(C)C | inconclusive [inhibitor, partial curve]
22 | O=C(NN=C1CCCC1)c1ccn[nH]1 | inactive
23 | Cc1c(OC(C)C(=O)NCC2CCC(C(=O)O)CC2)ccc2c(-c3ccccc3)cc(=O)oc12 (configuration not stated) | inconclusive [inhibitor, partial curve]

Row | Structure (SMILES) | Potency
24 | Cc1c(NC(=O)COc2cccc3c2OC(C)(C)C3)c(=O)n(-c2ccccc2)n1C | inactive
25 | Cc1ccc(-c2cc(C(=O)Nc3ccc(S(=O)(=O)N4CC(C)OC(C)C4)cc3)[nH]n2)c(O)c1 (configuration not stated) | inconclusive [inhibitor, partial curve, poor fit]
26 | Nc1nn2cc(-c3ccccc3)nc2c2ccccc12 | inconclusive [inhibitor, single point]
27 | C=CC[C@@H](Cc1ccc(F)cc1)C(=O)OC[C@@H]1CCCN1C(=O)[C@H](CC=C)CC(=O)N[C@H](CO)Cc1ccccc1 | inactive
28 | Cc1cc(NS(=O)(=O)c2ccc(Nc3nc(-c4sc(N)nc4C)cs3)cc2)no1 | inconclusive [inhibitor, full curve]
29 | Cc1ccc2sc(NNC(=O)c3cc(=O)c4ccccc4o3)nc2c1C | inactive
30 | CCOC(=O)C1CCCN(C2CC(=O)N(c3ccccc3)C2=O)C1 (configuration not stated) | inconclusive [inhibitor, single point]
31 | COc1ccc2nc(-c3ccco3)c(-c3ccco3)nc2c1 | inconclusive [inhibitor, partial curve]
32 | Nc1ncnc2c1ncn2[C@@H]1O[C@H](CNCc2ccccc2)[C@@H](O)[C@H]1O | inconclusive [inhibitor, single point]
33 | O=c1c2cc(-c3ccccc3)sc2ncn1-n1cccc1 | inconclusive [inhibitor, single point]
34 | O=C(c1cccs1)N1CCN(c2cc(Cl)ccc2Cl)CC1 | inconclusive [inhibitor, single point]
35 | COc1ccc(Oc2ccc(C(F)(F)F)cc2NC(=O)c2ccc(OC)cc2)cc1 | inconclusive [inhibitor, single point]
36 | CSc1ncccc1C(=O)OCc1c(F)cccc1Cl | inconclusive [inhibitor, partial curve, poor fit]
37 | COC(=O)C(C)Oc1ccc2c(c1)O/C(=C\c1ccco1)C2=O (configuration not stated) | inconclusive [inhibitor, partial curve]
38 | CCN(CC)C(=O)c1ccccc1NC(=O)CN1C(=O)c2ccccc2S1(=O)=O | inconclusive [inhibitor, single point]
39 | Cc1ccc(C)c(N2CCN(C(=S)Nc3ccc4nc(N5CCOCC5)cc(C)c4c3)CC2)c1 | inactive
40 | CC1CCN(C(=O)CCC(=O)Nc2nnc(C(F)(F)F)s2)CC1 | inactive
41 | Cc1ccc(CN2C(=O)S/C(=C\c3ccccc3OCC(=O)O)C2=O)cc1 | inconclusive [inhibitor, single point]
42 | COc1cc(C(=O)NCCOc2ccccc2)cc(OC)c1OC | inconclusive [inhibitor, full curve]
43 | O=C(CCNC(=O)c1ccc([N+](=O)[O-])cc1)NC1CCCc2ccccc21 (configuration not stated) | inconclusive [inhibitor, partial curve, poor fit]
44 | N#C/C(=C\c1ccc(OCc2ccc(Cl)cc2)cc1)C(=O)Nc1cccc(C(=O)O)c1 | inactive
45 | CC(=O)Nc1cc(-c2ccc(CO)cc2)cn2c(-c3ccc(F)cc3)cnc12 | inconclusive [inhibitor, single point]
46 | O=C1C(Cc2ccccc2)Nc2ncnc(N3CCCCC3)c2N1Cc1ccc(Br)cc1 (configuration not stated) | inconclusive [inhibitor, full curve, poor fit]

Row | Structure (SMILES) | Potency
47 | CCOc1cc2c(C#N)c(N(CC)CC)nc(N)c2c(N)n1 | inconclusive [inhibitor, single point]
48 | O=C(Cc1cc(C(=O)O)c2ccccc2n1)Nc1ccccc1 | inconclusive [inhibitor, full curve]
49 | Cc1cc(C)nc(Sc2ncnc3sc4c(c23)CCC4)n1 | inconclusive [inhibitor, single point]
50 | CC(C)C[C@@H]1NC(=O)[C@H](C(C)C)NC(=O)c2cc([N+](=O)[O-])cc(I)c2NCC[C@@H](C(N)=O)NC1=O | inconclusive [inhibitor, single point]
51 | Nc1nc(SCC(=O)Nc2ccc(Br)cc2F)n[nH]1 | inactive
52 | Cc1cccc(OCC(=O)NC2CCCCCC2)c1C | inconclusive [inhibitor, partial curve]
53 | Cc1cccc(C)c1-n1c(C)cc(/C=N\NC(=O)CC(=O)NC2CCCCC2)c1C | inconclusive [inhibitor, full curve]
54 | CC(Sc1ccccn1)C(=O)Nc1ccccc1 (configuration not stated) | inactive
55 | Cc1nn2c(SCC(=O)c3cccs3)cc(C(C)(C)C)nc2c1-c1ccccc1 | inconclusive [inhibitor, partial curve]
56 | CCN(CCn1cccn1)Cc1c(C(=O)N2CCCCCCC2)nc2ccc(Cl)cn12 | active: 22.4 µM
57 | CCC(=O)Nc1ccc(C(=O)Cn2ncc(Cl)c(Cl)c2=O)cc1 | inconclusive [inhibitor, partial curve]
58 | Cc1ccc(N(Cc2ccccc2)C(=O)c2cccc(S(=O)(=O)N3CCOCC3)c2)cc1 | inconclusive [inhibitor, single point]
59 | CCOc1ccc(-c2ccc(/C=C3/C(=N)N4C(C)=CSC4=NC3=O)o2)c([N+](=O)[O-])c1 | inconclusive [inhibitor, partial curve]
60 | COc1cc2cnc(-c3ccccc3)c(C(=O)c3ccc(F)cc3)c2cc1OC | inconclusive [inhibitor, full curve, poor fit]
61 | COc1cccc(-c2nn(-c3ccccc3)cc2CN2CCCO2)c1 | inconclusive [inhibitor, partial curve]
62 | O=C(N/N=C/c1cc([N+](=O)[O-])ccc1O)Nc1ccccc1 | inconclusive [inhibitor, single point]
63 | CCCCCN(C(=O)CCC(=O)OCC(=O)c1ccc(C(C)CC)cc1)c1c(N)n(CCCC)c(=O)[nH]c1=O (configuration not stated) | inconclusive [inhibitor, full curve]
64 | O=Cc1cccc(Oc2ncccn2)c1 | inactive
65 | Cc1ccc(C)c(N(CC(=O)NCCC2=CCCCC2)S(C)(=O)=O)c1 | inactive
66 | O=c1cc(CN2CCc3ccccc32)nc2sccn12 | inconclusive [inhibitor, single point]
67 | Cc1ccc(NC(=O)CC2S/C(=N/N=C3\CCCc4ccccc43)NC2=O)cc1 (configuration not stated) | inconclusive [inhibitor, single point]
